Test results from publication PMC4336329 (PLoS ONE, 2015).
About 14,000 (4.5%) of roughly 310,000 compounds showed an effect of 50% or more. The effect is printed as a negative number. The list shows a part of the results.

biological target: human ether-à-go-go-related gene (hERG) potassium channel (human, UniProt Q12809); test: primary screen, population patch clamp on CHO cells stably expressing hERG
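Also: peak tail current of the secondary pulse compared with the same well before compound.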

Sequence of human ether-à-go-go-related gene (hERG) potassium channel (Q12809 whole entry, looked up): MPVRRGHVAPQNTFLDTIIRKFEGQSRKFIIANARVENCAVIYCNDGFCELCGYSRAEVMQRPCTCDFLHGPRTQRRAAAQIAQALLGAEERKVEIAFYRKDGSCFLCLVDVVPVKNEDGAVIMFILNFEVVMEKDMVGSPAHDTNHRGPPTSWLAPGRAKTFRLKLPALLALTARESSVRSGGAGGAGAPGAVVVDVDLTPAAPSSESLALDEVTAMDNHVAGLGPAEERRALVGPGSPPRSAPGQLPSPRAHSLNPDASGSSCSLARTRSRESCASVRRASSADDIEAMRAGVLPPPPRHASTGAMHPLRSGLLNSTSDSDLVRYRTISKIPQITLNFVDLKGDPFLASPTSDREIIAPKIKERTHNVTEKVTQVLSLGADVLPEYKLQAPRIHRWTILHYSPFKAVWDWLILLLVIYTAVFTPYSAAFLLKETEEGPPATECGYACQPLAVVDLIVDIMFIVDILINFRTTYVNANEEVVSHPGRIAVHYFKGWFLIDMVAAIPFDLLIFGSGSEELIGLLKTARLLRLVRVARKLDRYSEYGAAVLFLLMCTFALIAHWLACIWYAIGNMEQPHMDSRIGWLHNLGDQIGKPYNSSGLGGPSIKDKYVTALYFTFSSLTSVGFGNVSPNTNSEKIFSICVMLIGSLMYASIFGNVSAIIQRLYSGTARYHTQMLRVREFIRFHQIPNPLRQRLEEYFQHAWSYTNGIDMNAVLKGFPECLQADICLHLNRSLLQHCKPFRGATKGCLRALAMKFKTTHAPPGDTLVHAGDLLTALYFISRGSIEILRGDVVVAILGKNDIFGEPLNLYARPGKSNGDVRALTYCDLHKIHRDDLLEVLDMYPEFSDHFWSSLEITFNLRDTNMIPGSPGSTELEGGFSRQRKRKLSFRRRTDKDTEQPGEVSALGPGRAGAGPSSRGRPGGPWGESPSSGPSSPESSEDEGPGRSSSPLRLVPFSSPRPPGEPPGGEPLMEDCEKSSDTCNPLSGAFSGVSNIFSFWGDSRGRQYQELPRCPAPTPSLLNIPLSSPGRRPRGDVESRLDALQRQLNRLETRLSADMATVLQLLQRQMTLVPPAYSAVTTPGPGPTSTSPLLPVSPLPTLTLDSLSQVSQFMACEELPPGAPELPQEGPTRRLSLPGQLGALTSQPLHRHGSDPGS

Row | Compound | hERG current change (%, negative = inhibition) at 10uM [%]
1 | COC(=O)c1ccc(CSc2nc3cc(Cl)ccc3s2)o1 | 9.32
2 | NC(=O)CC(NC(=O)Cc1cccc2ccccc12)c1ccc(NC2CC3CCC2C3)c([N+](=O)[O-])c1 (centres unmarked) | 3.15
3 | Cc1ccc(C(=O)N/N=C\c2ccncc2)s1 | 11.3
4 | O=c1oc2ccccc2cc1-c1nc(-c2ccccc2)no1 | -5.23
5 | CC1CN(C(=O)C2CCCCC2)C(C)CN1C(=O)C1CCCCC1 (centres unmarked) | 15.1
6 | O=C(O)/C=C/C(=O)N1CCN(c2cccc(Cl)c2)CC1 | 8.61
7 | COC(=O)c1c(C)[nH]c(C)c1-c1ccc(C)cc1 | 10.5
8 | COc1ccc2c(c1)c(=O)oc1c(C)c(OCc3ccc(C(=O)O)cc3)ccc12 | 2.39
9 | Cc1ccc(OCC(=O)NNC(=S)NC(=O)C(C)(C)C)c(Br)c1 | 25.9
10 | O=C(NCCc1ccc(Cl)cc1)c1ccc(OCC2CCCO2)cc1 (centres unmarked) | 15.7
11 | COc1ccc(CCC(C)NCCc2ccc(Cl)cc2Cl)cc1 (centres unmarked) | -71.8
12 | CN(C)CCNc1oc(COc2cccc(Cl)c2)nc1C#N | -16.1
13 | O=C(OCCCOc1ccc(F)cc1)c1ccc(O)cc1O | 8.42
14 | O=C(CN(C(=O)CNC(=O)c1cccs1)c1cccc(F)c1)NC1CCCCC1 | -0.617
15 | O=C(NNc1ncccc1Cl)c1c(Cl)cccc1Cl | 4
16 | COc1ccc(CCNCC2C(Oc3ccc(Cl)cc3)C(=O)N2c2ccccc2C)cc1OC.Cl (centres unmarked) | -41
17 | COc1ccc(CN(C)C(C)C(=O)N(C)CC(=O)Nc2ccc(C)cc2)cc1F (centres unmarked) | -57.1
18 | Cc1ccc(SCc2ccc(C(=O)Nc3cccc([N+](=O)[O-])c3C)cc2)cc1 | 11.7
19 | CC(C)c1ccc(OCC(=O)N(Cc2ccccc2)c2ccccn2)cc1 | 5.62

Row | Compound | hERG current change (%, negative = inhibition) at 10uM [%]
20 | CCOc1ccc(C(CC(=O)O)NC(=O)COc2ccc3ccccc3c2)cc1OC (centres unmarked) | 18.8
21 | COc1ccc(CCNS(=O)(=O)c2ccc(-n3cnnn3)cc2)cc1OC | -26
22 | Cc1cc(C)n2nc(-c3ccco3)nc2n1 | 1.34
23 | C=CCN(c1ccc(C(=O)Nc2ccc3c(c2)OCO3)cc1)S(C)(=O)=O | 5.79
24 | COc1ccc(C(=O)O/N=C(/c2ccccc2)c2ccncc2)cc1OC | 16.7
25 | O=S(=O)(c1ccc(Cl)cc1)N1CCN(C(=S)Nc2ccccc2F)CC1 | 2.92
26 | O=C(COC(=O)c1cc(-c2ccco2)nc2ccccc12)NCc1ccccc1 | -11.3
27 | Cc1ccc(-c2[nH]ncc2/C=N/n2c(COc3ccccc3C)nc3ccccc3c2=O)cc1 | -5.26
28 | O=C(CC1Nc2ccccc2NC1=O)c1ccccc1 (centres unmarked) | -2.01
29 | CC(=O)N1CCc2cc(S(=O)(=O)NCCC(=O)Nc3cccc(C)c3C)ccc21 | 0.058
30 | CSCCC(NS(=O)(=O)c1ccc(C)cc1)C(=O)N1CCCCCCC1 (centres unmarked) | 0.736
31 | CN(c1cccc(NC(=O)CN2C(=O)c3ccccc3S2(=O)=O)c1)S(C)(=O)=O | -39.6
32 | COc1ccc(NC(=O)C#Cc2ccccc2)cc1OC | -4.68
33 | O=C(Nc1c2c(nn1-c1cccc(Cl)c1)CS(=O)(=O)C2)c1ccc2c(c1)OCO2 | -18.5
34 | O=C(CSc1n[nH]c(-c2ccccn2)n1)Nc1ccc(F)cc1 | -1.32
35 | N#Cc1nc(-c2ccc(OCc3ccccc3)cc2)oc1NCCN1CCOCC1 | 21.5
36 | NS(=O)(=O)c1ccc(NC(=O)CSC2=NC(=O)C(c3ccccc3)C(=O)N2)cc1 (centres unmarked) | 3.54
37 | O=C(O)c1cccc(S(=O)(=O)Nc2ccc(O)c(Sc3nc4ccccc4s3)c2)c1 | 30.8
38 | Cc1ccc(S(=O)(=O)c2ccc(C)cc2)cc1 | 12.1

Row | Compound | hERG current change (%, negative = inhibition) at 10uM [%]
39 | Cc1ccccc1/C=N/n1c(-c2cc(-c3ccccc3)n[nH]2)n[nH]c1=S | 11.4
40 | CC(C)(C)C(=O)NC(=O)Nc1ccccc1C(F)(F)F | 24.1
41 | COc1ccc(C(=O)Nc2cc(C(F)(F)F)ccc2-n2cnc3ccccc32)cc1 | -31.5
42 | COc1ccc(NC(=O)c2ccccc2NS(=O)(=O)c2ccc(CNC(C)=O)cc2)c(OC)c1 | 16.4
43 | CC(=O)c1nnn(-c2ccc([N+](=O)[O-])cc2C)c1C | -7.85
44 | CN(C)[C@H]1N(C(=O)c2ccc(Br)cc2)N=C2c3ccccc3S(=O)(=O)N21 | -28.9
45 | COc1ccc(C2C(C#N)=C(N)Oc3cc(N)ccc32)cc1OC (centres unmarked) | -4.68
46 | Cl.c1ccc2c3c(c(CN4CCCCC4)cc2c1)COC3 | -24.1
47 | CC1CC(C)(C)NC(=S)N1CCCC(=O)Nc1ccccc1F (centres unmarked) | 10.6
48 | COc1ccc(S(=O)(=O)Nc2nnc(C)s2)cc1 | -3.71
49 | CC(C(=O)Nc1ccc2c(c1)OCCO2)N1Cc2ccccc2C1=O (centres unmarked) | 13.7
50 | CC(=O)c1ccccc1-c1csc2ncnc(Sc3nnnn3C)c12 | -1.79
51 | COc1cc2c(cc1OC)CN(C(=O)Cc1ccccc1)CC2 | -20.1
52 | O=C(COc1ccccc1C(=O)Nc1ccccc1)c1ccc(Br)cc1 | -1
53 | NS(=O)(=O)c1ccc(NC(=O)COC(=O)c2ccc3c(c2)OCCO3)cc1 | 24
54 | CCn1c2ccccc2c2cc(/C=N/n3cnnc3)ccc21 | -13.4
55 | Nc1nonc1-n1nnc(C(=O)N/N=C/c2ccccc2F)c1CN1CCOCC1 | -6
56 | Cc1ccc(C2(C)NC(=O)N(CC(=O)N3c4ccccc4NC(=O)CC3C)C2=O)cc1 (centres unmarked) | 11
